# Results taken from paper PMC6919601, “Identification of Plasmodium dipeptidyl aminopeptidase allosteric inhibitors by high throughput screening” (PLoS ONE, 2019).
# Values joined by “and” are separate entries in the source; they are usually repeats but may differ in a detail not shown here. Identical values can stand only once. Hit rate of the full screen: of about 110,000 compounds, about 230 (0.21%) showed an effect of 50% or more. This is one part of the list.
# Target: DPAP1 (Plasmodium falciparum, UniProt Q8IIJ9)
# Assay: primary screen, percent inhibition; read by cleavage of a fluorogenic dipeptide substrate; higher = more effect of the substance
# Design: species or system P. falciparum D10 trophozoite lysates; single well
# 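Further: 30 min substrate incubation versus DMSO and 10 µM JCP410 controls.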
# Sequence of DPAP1 (Q8IIJ9 whole entry, looked up): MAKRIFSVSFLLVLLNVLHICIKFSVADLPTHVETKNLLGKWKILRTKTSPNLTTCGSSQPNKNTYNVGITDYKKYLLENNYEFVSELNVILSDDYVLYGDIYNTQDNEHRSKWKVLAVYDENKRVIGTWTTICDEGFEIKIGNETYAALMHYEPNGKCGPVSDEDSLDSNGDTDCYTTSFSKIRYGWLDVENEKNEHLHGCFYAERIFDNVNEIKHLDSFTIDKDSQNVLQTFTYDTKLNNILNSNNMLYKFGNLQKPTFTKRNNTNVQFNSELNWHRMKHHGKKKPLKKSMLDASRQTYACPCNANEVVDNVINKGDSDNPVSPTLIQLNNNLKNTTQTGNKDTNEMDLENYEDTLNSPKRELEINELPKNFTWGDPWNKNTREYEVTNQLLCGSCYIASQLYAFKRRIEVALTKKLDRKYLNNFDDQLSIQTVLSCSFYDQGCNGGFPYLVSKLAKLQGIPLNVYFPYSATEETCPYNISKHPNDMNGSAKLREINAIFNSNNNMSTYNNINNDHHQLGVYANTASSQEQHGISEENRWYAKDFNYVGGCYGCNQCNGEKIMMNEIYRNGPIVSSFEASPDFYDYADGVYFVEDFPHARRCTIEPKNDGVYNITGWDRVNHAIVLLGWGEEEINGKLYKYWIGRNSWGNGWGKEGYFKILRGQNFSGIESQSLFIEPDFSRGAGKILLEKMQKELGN
row,Structure (SMILES),% Inhibition @ 10 uM
1,Cc1ccc(CNC(=O)CSc2nc3c(c(=O)n2CCc2ccccc2)SCC3)cc1,-5.54%
2,CCOc1ccc(CNCc2c(C(=O)O)n(Cc3ccccc3)c3cc(OC)ccc23)cc1,-3.27%
3,Cc1ccccc1CN(CCO)Cc1ccccc1,-3.57%
4,COc1cc(OC)c(C2C(C#N)=C(N)OC3=C2C(=O)CC(C)C3)cc1Br (centres unmarked),-3.79%
5,COC(=O)/C(C#N)=C/c1c(Oc2ccc(Br)cc2)nc2ccccn2c1=O,-4%
6,COc1cccc(C2=N/C(=C\c3sccc3C)C(=O)O2)c1,2.92%
7,O=C(Nc1cccc2c(NC(=O)C(F)(F)F)cccc12)C(F)(F)F,5.51%
8,CS(=O)(=O)N(CC(=O)NC1CCCCC1)c1cccc(Br)c1,-3.49%
9,Cc1cc(OCCCCN2CCOCC2)cc(C)c1Cl,6.54%
10,N#Cc1ccccc1Cn1c(-c2cncs2)nc2ccccc21,3.84%
11,OCCNCC1(O)C2CC3CC(C2)CC1C3 (centres unmarked),2.65%
12,COc1ccc(CCNC(=O)C2Cc3ccccc3CN2S(=O)(=O)c2cccs2)cc1OC (centres unmarked),-0.123%
13,Cc1ccc(CN2CCC(CNS(=O)(=O)c3ccc(-c4cc(C(F)(F)F)no4)s3)C2)cc1 (centres unmarked),1.05%
14,O=C(O)c1ccc2c(c1)C(=O)N(c1cnc(O)nc1O)C2=O,-7.27%
15,COc1ccc(OCC(=O)Nc2c(C(=O)c3ccc(OC)cc3)oc3ccccc23)cc1,-0.99%
16,OCc1nc2ccccc2n1CC(O)Cn1ccc2ccccc21 (centres unmarked),3.35%
17,CCOC(=O)c1ccc2nc(Nc3nc4c(OC)cccc4s3)sc2c1,0.458%
18,Cc1ccccc1Cn1cc(NC(=O)COc2ccccc2)cn1,0.512%
19,Cn1c2ccc(F)cc2c2nnc(S)nc21,74%
20,Brc1cccc(CN2CCN(c3ccccn3)CC2)c1,3%
21,Cc1ccc(CS(=O)(=O)Cc2ccc(C(=O)NC3CCCC(C)C3C)o2)cc1 (centres unmarked),3.79%
22,Nc1c(C(=O)Nc2ccccc2C(=O)O)sc2nc3c(cc12)CCCCC3,15.8%
23,Clc1ccc(CNc2ccc(CNc3nc[nH]n3)cc2)cc1,-3.43%
24,CCN(CC)C(=O)Oc1cc(=O)n(C)c2ccccc12,6.37%
25,COc1ccccc1NC(=O)COc1cc(C)ccc1C(C)C,-11.4%
26,O=C(CN1Cc2ccccc2C1=O)Nc1ccccn1,-4.1%

row,Structure (SMILES),% Inhibition @ 10 uM
1,O=C(NCc1ccccn1)c1ccc(NC(=O)c2ccco2)cc1,-9.53%
2,CC(NC(=O)c1csc2ccccc12)c1ccccc1 (centres unmarked),-8.78%
3,COCc1cc(C)nc(Nc2ccc(C)cc2C)c1C#N,-0.436%
4,COc1ccc(C(=O)N2CCN(CC(=O)N3CCOCC3)CC2)cc1,6.33%
5,Cn1c(C(=O)N2CCCCC2)cc2sccc21,1.89%
6,CCc1ccc(-n2c(C)nnc2SCc2nc(-c3ccc(C)cc3)no2)cc1,-2.43%
7,CC(C)c1ccccc1NC(=O)c1ccc(CN2CCOCC2)cc1,3.04%
8,CN(CCCNC(=O)c1cnn(-c2ccc(F)cc2)c1-n1cccc1)C1CCCCC1,-0.913%
9,CC(C)(C)Nc1ncnc2c1cnn2-c1ccc(Cl)cc1,-2.67%
10,COc1ccccc1NC(=O)CN1C(=O)c2cccc3cccc(c23)C1=O,2.51%
11,COc1ccc(C(=O)/C=C\c2ccc(Cl)cc2Cl)cc1F,4.6%
12,O=C(NC1CCCc2ccccc21)C(Cc1ccccc1)NS(=O)(=O)c1cccs1 (centres unmarked),4.02%
13,CN1C(=O)N(c2ccccc2)C(NC(=O)Nc2ccc(Cl)c(Cl)c2)C1(C)C (centres unmarked),3.7%
14,O=C1C(/C=N/CCN2CCOCC2)=C(O)c2ccccc21,10.6%
15,N#CC1=C(N)N(c2c(F)cccc2F)C2=C(C(=O)CCC2)C1c1ccsc1 (centres unmarked),-9.33%
16,CC(C)(C)C1CCc2c(sc(NC(=O)c3cccs3)c2C(=O)NCCO)C1 (centres unmarked),5.23%
17,CCc1nnc(NC(=O)c2c(OC)cccc2OC)s1,-3.98%
18,COc1cccc(-c2nc(-c3cc4ccccc4nc3OC)no2)c1,-4.19%
19,CC(C)C(NC(=O)c1ccc(Cl)cc1)C(=O)Nc1nc2ccccc2s1 (centres unmarked),2.17%
20,Cc1ccc(/C=C(\NC(=O)c2ccccc2)C(=O)NCCc2cccc(Cl)c2)o1,2.17%
21,CCOC(=O)c1c(CSc2ccc(C)cc2)n(C)c2ccc(O)cc12,-7.23%
22,CSc1nsc(SCC(=O)NCc2ccco2)n1,-1.52%
23,c1ccc2nc(-c3ccc(Cc4ccc(-c5cnc6ccccc6n5)cc4)cc3)cnc2c1,0.989%
24,CC(C)C[C@H](NC(=O)OCc1ccccc1)C(=O)N[C@H](C#N)Cc1c[nH]cn1,3.19%
25,Brc1ccc(Cn2c3ccccc3c3nc4ccccc4nc32)cc1,-2.51%
26,CC1(C)CC(=O)C2=C(C1)OC(N)=C(C#N)C2c1ccc(-c2ccc(F)cc2)o1 (centres unmarked),-1.38%

row,Structure (SMILES),% Inhibition @ 10 uM
1,Cc1cc(C)c(C(=O)Cc2ccccc2)c(O)n1,-6.12%
2,CS/C(=C\C(=O)c1ccco1)CC(=O)c1ccco1,-1.17%
3,CC(C)(C)n1ncc2c(=O)n(CC(=O)NC3CCCC3)cnc21,3.24%
4,CCOc1ccc(/C=C2/S/C(=N/c3ccccc3)N(C)C2=O)cc1OC,-10.6%
5,COc1cc(C2C(C(C)=O)=C(C)Nc3ncnn32)ccc1OCc1ccccc1C (centres unmarked),-2.98%
6,Cc1cc(/C=C2/NC(=O)N(c3ccc(Cl)cc3)C2=O)c(C)n1-c1ccc(S(N)(=O)=O)cc1,5.73%
7,N#CCNC(=O)[C@H](CSCc1ccccc1)NC(=O)/C=C/c1cccnc1,1.35%
8,OC12CC3CC(C1)C(Nc1ccc(Br)cc1)C(C3)C2 (centres unmarked),-1.82%
9,CC1(C)CC(=O)C(/C=N/c2ccncc2)=C(O)C1,-1.06% and -1.26%
10,Cc1ccccc1Cn1c(C(=O)O)c(CNCCc2cccs2)c2ccccc21,1.93%
11,COc1ccccc1-c1nnc(SCC#CCO)o1,1.74%
12,Cc1nc2cc(-c3ccccc3)nn2c(C)c1CCC(=O)NC1CCCC1,2.93%
13,O=C1c2cccc3c(O)c(Cc4ccccc4)c(O)c(c23)C(=O)N1c1ccccc1,-1.07%
14,O=C(c1ccc(CS(=O)Cc2ccccc2Cl)o1)N1CCC(N2CCCCC2)CC1 (centres unmarked),-3.61%
15,COc1ccc(S(=O)(=O)Nc2ccccc2C(=O)N2CCCC2)cc1C,-3.71%
16,O=C(Nc1ccccc1)Nc1cccc(Cl)c1Cl,-0.969%
17,Clc1ccc(N2CCN(Cc3ccccc3Cl)CC2)cc1,-5.5%
18,Cc1cccc(C)c1NC(=O)CN1CCCCCC1,0.273%
19,COc1ccc(Br)cc1/C=c1\sc2nc(C3COc4ccccc4O3)nn2c1=O (centres unmarked),5.12%
20,CSc1cccc(NC(=O)CNS(=O)(=O)c2ccc(F)cc2)c1,5.66%
21,CC(=O)N1CCc2c(sc3c2c(=O)n(Cc2ccccc2)c(=O)n3CC(N)=O)C1,3.32%
22,CCOc1ccc(/C=C(/C#N)c2nc(-c3ccc(F)cc3)cs2)cc1,-2.28%
23,Clc1ccc(Cn2ncc3c(N4CCCCC4)ncnc32)c(Cl)c1,-2.44%
24,CCCCN(CCCn1cnc2c3ccccc3nc-2c1O)Cc1ccccc1,1.64%
25,Nc1c(N2CCCCC2)cnn(-c2ccccc2)c1=O,3.48%
26,Cc1ccc(NC(=O)CCC(=O)O)c(C(=O)c2ccccc2)c1,-3.9%

row,Structure (SMILES),% Inhibition @ 10 uM
1,Cn1c(Cn2nnc(-c3ccccc3)n2)nnc1SCc1ccccc1Cl,-4.04%
2,COc1cc(/C=C2\SC(Nc3cccc(Br)c3)=NC2=O)ccc1OCC(=O)O,0.245%
3,CCOC(=O)C1CCN(C(C)CCc2ccc(O)cc2)CC1 (centres unmarked),-3.6%
4,Cc1ccc(C)c(N(CC(=O)NC2CCCCC2)S(C)(=O)=O)c1,-4.24%
5,O=C(Nc1ccc(N2CCN(Cc3ccccc3)CC2)cc1)c1ccc(Br)o1,-2.29%
6,Cc1cc(C)c(S(=O)(=O)Nc2ccc(Br)cc2)c(C)c1,1.91%
7,C=CCn1c(SCC(=O)Nc2ccsc2C(=O)OC)nnc1-c1cccnc1,-2.19%
8,Clc1cccc(CN2CCN(c3ccccn3)CC2)c1,-3.72%
9,Nc1c(C(=O)N2CCOCC2)sc2nc3c(cc12)CCCCC3,33.4%
10,C#CC(C)(CC)NS(=O)(=O)c1cc(C(C)C)ccc1OC (centres unmarked),10.4%
11,Cc1ccc(S(=O)(=O)NCc2ccc(C(=O)N3CCN(Cc4ccccc4)CC3)cc2)cc1,-7.16%
12,Cn1c(=O)c2c(nc(CN3CCCCC3)n2Cc2c(F)cccc2Cl)n(C)c1=O,1.23%
13,OC1CCN(Cc2ccc(Cl)cc2)C1 (centres unmarked),-5.31%
14,Cc1cc(C)n(-c2nc3ccccc3n3c(C)nnc23)n1,5.62%
15,O=C(NCc1cccnc1)c1ccc(CS(=O)(=O)c2c(Cl)cccc2Cl)o1,-8.9%
16,O=C(CN(c1cccc(C(F)(F)F)c1)S(=O)(=O)c1ccccc1)Nc1ccc2c(c1)OCO2,-5.29%
17,O=S(=O)(Nc1cc(Cl)c(O)c(Cl)c1)c1ccccc1,1.24%
18,CCOC(=O)C1=C(CN2CCC(C(N)=O)CC2)NC(=O)NC1c1ccco1 (centres unmarked),-2.83%
19,Cc1ccc(-n2nc3c(=O)n(CCCC(=O)NCc4ccc(C)o4)nc(C)c3c2C)cc1,-0.846%
20,CCC1(C)OC(=O)N(CCc2ccc(OC)c(OC)c2)C1(C)O (centres unmarked),-8.71%
21,CCCC1=C(C(=O)OCC)C(c2ccc(C)cc2)NC(=O)N1 (centres unmarked),0.0538%
22,O=C(COc1ccccc1)Nc1cc(Cl)c(Cl)cc1Cl,-4.01%
23,COc1ccc(-c2cc(C(=O)N3CCCC3)c3ccccc3n2)c(OC)c1,0.389%
